Laboratory results reported in PubChem BioAssay (NCI).
“And” between values parts separate entries of the source, which are not always exact repeats. Equal entries are not always repeated.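 Each compound was tested at five concentrations against cells in 96-well plates for 48 hours. Here, GI50 denotes the concentration required for 50% inhibition of growth. TGI marks complete inhibition of growth.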

system: NCI-H322M lung; assay: growth of human tumour cells (NCI), 48 h

| SMILES | TGI | GI50 |
| --- | --- | --- |
| O=C1C(c2c(O)[nH]c3ccc(S(=O)(=O)O)cc23)=Nc2ccccc21 | > 100 µM |  |
| COc1ccc2nc3cc([N+](=O)[O-])ccc3c(NCCCCCN(C)C)c2c1 | 10.2 µM | 0.201 µM |
| C=C(Cl)/C(=C\Cl)CCC(Br)C(C)C (stereo not given) | > 100 µM |  |
| CCCCN1CCN(c2ccc3nc(-c4ccc5nc(-c6ccc(C(F)(F)F)cc6)[nH]c5c4)[nH]c3c2)CC1 | 2.91 µM | 1.53 µM |
| O=C([O-])c1ccccc1Nc1ccccn1.O=C([O-])c1ccccc1Nc1ccccn1.[Ni+2] | > 100 µM | > 100 µM |
| C=CCC1([C@H](C)[C@@H](OC(C)=O)c2cc(OC)c(OC)c(OC)c2)C[C@@H](OC)CCC1=O (stereo not given in full) | 69.9 µM |  |
| CSC1CC2C(CC1(C)O)C2(C)C (stereo not given) | > 100 µM |  |
| O=C(O)[C@@H]1C[C@@H](O)CN1C(=O)OCc1ccccc1 | > 100 µM |  |
| CCN(CC)S(=O)(=O)c1ccc(OC)c(Nc2ncc(-c3ccccc3)o2)c1 | > 25 µM | > 25 µM |
| COc1cc(Cl)cc(-c2nn(C(=O)NCCN3CCOCC3)cc2-c2ccncc2)c1 | > 100 µM | 37.8 µM |
| COP(=O)(O)/C=C/C(NC(=O)C(Cl)(Cl)Cl)c1ccccc1 (stereo not given) | > 100 µM |  |
| COc1ccc2c(c1)C(O)(C(F)(F)F)c1cc(C(=O)C(F)(F)F)c3ccccc3c1N2 (stereo not given) | 24.6 µM |  |
| O=C(c1ccccc1)C1N=NCC1c1ccc([N+](=O)[O-])cc1 (stereo not given) | > 100 µM |  |
| O=C1OC(=O)C(c2c[nH]c3ccccc23)=C1c1c[nH]c2ccccc12 | > 25 µM | > 25 µM |
| CC(C)NC[C@@H](C(=O)N1CCN(c2ncnc3c2[C@H](C)C[C@H]3O)CC1)c1ccc(Cl)cc1 | > 100 µM | > 10 µM and 33.3 µM |
| Cc1ccccc1OC(C)C(=O)NN1C(=O)CC(=O)N(c2ccc(Cl)cc2)C1=S (stereo not given) | > 100 µM |  |
| Cc1ccc(S(=O)(=O)Oc2cc(N)c3c(n2)CCC3)cc1 | > 100 µM |  |
| Cc1[c-]onc1C.Cc1[c-]onc1C.[Ag].[Ag].[NH-]S(=O)(=O)c1ccc(N=Nc2cc(N=Nc3ccc(S([NH-])(=O)=O)cc3)c3c(NC(=O)C(Cl)Cl)cccc3c2OC(=O)C(Cl)Cl)cc1 | 32.7 µM | 11 µM |
| CCCC[C@H](NC(=O)[C@H]1CCCN1C)C(=O)N(C)[C@H](C[C@@H](OC(C)=O)c1nc(C(=O)N[C@@H](Cc2ccccc2)C[C@H](C)C(=O)OCC)cs1)C(C)C | > 33.3 µM | 0.0176 µM |
| Cc1cc(N(CCC#N)S(=O)(=O)c2ccccc2)ccc1/C=C1N=C(/C=C/c2ccccc2)OC\1=O | > 100 µM |  |
| c1ccc2c(c1)[nH]c1nc3cc(-c4ccc5nc6c(nc5c4)[nH]c4ccccc46)ccc3nc12 | > 100 µM |  |
| CN(C)NC(=S)Nc1ccccc1Br | > 100 µM |  |
| Cc1ccc2c(ccc3c[n+]4c5ccccc5ccc4n32)c1 | 9.82 µM | 2.35 µM |
| CCCCn1c2c(n(CCCC)c1=S)-c1c(n(CCCC)c(=S)n1CCCC)S[Se][Se]S2 | > 77.7 µM |  |
| Cc1occc1C(=S)Nc1ccc(Cl)c(COC(C)(C)C)c1 | 36.1 µM |  |
| COC(=O)c1csnn1 | > 100 µM |  |

| SMILES | TGI | GI50 |
| --- | --- | --- |
| CC(C)=CCc1c2c(c3occ(-c4ccc(O)c(O)c4)c(=O)c3c1O)C=CC(C)(C)O2 | 14.4 µM |  |
| CN(C)c1nc(=NCc2ccncc2)ss1 | > 100 µM |  |
| CCSC1=CC(=O)c2nc3ccccc3c3ccnc1c23 | 25.3 µM |  |
| C[N+](C)(C)CC(=O)N/N=C(/Cc1nc2c3c(ccc2[nH]c1=O)C(=O)c1ccccc1C3=O)C(=O)Nc1ccc(Cl)c(Cl)c1 | > 100 µM |  |
| C=C1[C@@H](O)C[C@@]23CC[C@@H]4[C@@]5(C)CC[C@@H](OC(C)=O)C(C)(C)[C@@H]5C[C@@H](OC5OC(COC(C)=O)C(O)C(O)C5O)[C@@]4(C)C2=CC[C@H]3[C@H]1C (stereo not given in full) | 25.4 µM |  |
| O=C(CN1CCCCC1)CC(O)(C(F)(F)F)C(F)(F)F | > 100 µM |  |
| CCC1=CCC23C(=O)C=CC(=O)C2(C1)C(=O)c1cccc(OC)c1C3=O (stereo not given) | > 100 µM |  |
| Cc1ccc(S(=O)(=O)N2CCSCCSCCSCCSCC2)cc1 | > 100 µM |  |
| ClCCn1c(CCl)nc2ccc(Cl)cc21 | 14.5 µM | 4.39 µM |
| C/C(=C\c1ccccc1)C(=O)CCN1CCOCC1 | > 100 µM |  |
| O=C(O)c1ccc([Se][Se]c2ccc(C(=O)O)cc2)cc1 | 21.4 µM |  |
| COc1c2c(c3c(c1CCC(=O)O)OC(C)(C)C=C3)OC(C)(C)C=C2 | > 100 µM |  |
| CN(C)C(CN)CC1=C(CC(CN)N(C)C)CCC1 (stereo not given) | > 100 µM |  |
| OC[C@@H](O)[C@H]1NC[C@@H](O)[C@H]1O | > 100 µM |  |
| N#Cc1c(-c2ccccc2)/c(=C\Nc2ccc(Cl)cc2)c(=O)n2c1nc1ccccc12 | > 100 µM |  |
| CC(C)(C)OC(=O)C#CC[C@H]1CCCC1/C=C/C(O)=C1/C(=O)NC(CCCNC(=O)OC(C)(C)C)C1=O (stereo not given in full) | > 100 µM |  |
| COc1ccc(/C(=N/O)c2ccccc2-c2nc3ccccc3c(=O)n2-c2ccc(S(=O)(=O)Nc3ncccn3)cc2)cc1C | > 31.6 µM |  |
| COc1cc2c(cc1OC)C(N(C)C)C(c1ccccc1)=C2Cl (stereo not given) | 71.4 µM |  |
| c1cc(-c2cn3ccsc3n2)ccn1 | > 100 µM |  |
| CC(=O)NC(CCCNCc1ccccc1)C(=O)NCc1ccccc1 (stereo not given) | > 100 µM |  |
| CC(=O)N/N=C1/NN(C(C)=O)C2(S1)C(=O)Nc1ccc(Br)cc12 (stereo not given) | > 100 µM |  |
| Cc1cc(-c2nc3c(O)cccc3s2)ccc1N | 83.4 µM |  |
| CC1=NOC(=O)/C1=C/c1ccccc1O | > 100 µM |  |
| NC(=O)C(=O)N/N=C1/c2ccccc2CC1C1(O)C(=O)Nc2c(Cl)cc(Cl)cc21 (stereo not given) | > 100 µM |  |
| O=C(c1ccc(F)cc1)c1cccc(C(=O)c2ccc(F)cc2)n1 | > 100 µM |  |
| COc1ccccc1NC(=O)CC(=O)N1N=C(C)C(N=Nc2ccc(S(N)(=O)=O)cc2)C1=O (stereo not given) | > 100 µM |  |

| SMILES | TGI | GI50 |
| --- | --- | --- |
| C=CCc1c2c(c(OC)c3ccoc13)C(=O)/C(=C/c1ccccc1OC)O2 | 67.5 µM | 5.93 µM |
| CCC(C(=O)O)c1ccc(OCc2ccccc2)cc1 (stereo not given) | > 100 µM |  |
| O=c1c2c([nH]c3cc4c(cc13)OCO4)-c1ccccc1CC2 | > 100 µM |  |
| COC(=O)[C@@H](C)C[C@H](Cc1ccccc1)NC(=O)c1nc([C@@H](C[C@H](C(C)C)N(C)C(=O)[C@@H](NC(=O)[C@H]2CCCCN2C)C(C)C)OC(C)=O)sc1C | > 16.7 µM | 0.00232 µM |
| CCCCCCCCCc1cc(=O)c2ccc(OCc3ccccc3)cc2o1 | > 100 µM |  |
| CCCCCCCCCC[C@H](O)[C@H]1CC[C@H]([C@H]2CC[C@H]([C@H](O)CC[C@H](O)CCCCCCC[C@@H](O)CC3=C[C@H](C)OC3=O)O2)O1 | > 100 µM |  |
| CC1(C)O[C@@H]2COC(=O)[C@@H]2O1 | > 100 µM |  |
| O=c1cc(/C=C/c2ccc(O)c(O)c2)oc(/C=C/c2ccc(O)c(O)c2)c1 | 15 µM |  |
| CCN(Cc1ccc(F)c(F)c1)c1ccc(CO)c(Cl)c1 | 31.6 µM | 11.4 µM |
| C=C(C)CCC(=O)[C@](C)(O)[C@H]1[C@H](O)C[C@@]2(C)[C@@H]3CCc4c(cc(OC5OC(CO)C(O)C(O)C5O)c(O)c4C)C3(C)C(=O)C[C@]12C (stereo not given in full) | > 100 µM |  |
| Cc1c(C(=O)/C=C/c2csc3ccccc23)[n+](=O)c2ccccc2n1[O-] | 3.9 µM | 1.77 µM |
| CC(C)(C)NC(=O)[C@H]1CC[C@H]2[C@@H]3CC=C4NC(=O)CC[C@]4(C)[C@H]3CC[C@]12C | > 100 µM |  |
| CC1SC(c2c(Cl)cccc2Cl)N(NC(=O)c2[nH]c3ccc(F)cc3c2-c2ccccc2)C1=O (stereo not given) | 6.48 µM | 2.18 µM |
| O=C(CP(=O)(O)O)c1cccs1 | > 100 µM |  |
| O=C(CC(=O)CC(O)(C(F)(F)F)C(F)(F)F)CC(O)(C(F)(F)F)C(F)(F)F | > 10 µM |  |
| CCCN=Cc1cc(Cc2ccc(O)c(C=NCCC)c2)ccc1O | 28.2 µM |  |
| Cc1cccc(NC(=O)CC(=O)N2N=C(N(CCC#N)c3ccc(Cl)cc3)CC2c2ccccc2)c1 (stereo not given) | > 100 µM |  |
| COC(=O)CCC(NC(=S)N/N=C(\C)c1nccs1)C(=O)OC (stereo not given) | > 100 µM |  |
| CC1CCCCc2nc3c(c(=O)n21)CCCC3 (stereo not given) | > 100 µM |  |
| COc1cccc(-c2cc(=O)c3c(C)cc(C)nc3[nH]2)c1 | > 100 µM |  |
| O=C1/C(=C/c2ccccc2S)N=C(c2ccccc2)N1c1nc2ccc(Sc3ccccc3)cc2[nH]1 | > 100 µM |  |
| CCN(CC)c1ccc(C(=C2C=CC(=[N+](CC)Cc3cccc(S(=O)(=O)O)c3)C=C2)c2ccc(N(CC)Cc3cccc(S(=O)(=O)O)c3)cc2)cc1 | > 100 µM | 10.4 µM |
| CCC(=O)OC[n+]1ccc2c(C)c3[nH]c4ccc(OC)cc4c3c(C)c2c1 | 1.53 µM |  |
| O=[N+]([O-])C(=C(N1CCCCC1)N1CCCCC1)/C(Cl)=C(\Cl)Br | 81.4 µM |  |
| Nc1nn2c(C(Br)Br)cc(C(Br)Br)nc2c1[N+](=O)[O-] | 11.2 µM |  |
| CSCCC(NCc1c(O)ccc2c(-c3ccccc3)cc(=O)oc12)C(=O)O (stereo not given) | > 100 µM |  |
